Experimental data taken from the supplement of paper PMC4604168 (melanoma cell lines).
This is one part of the list. Repeats are few or missing, and single values can be far off.

What was measured:
Test in all cases: cell count relative to DMSO control; melanoma cells; higher = more viable cells
Conditions in all cases: library dose: low library concentration; 72 h
WM115 = test system: WM115
WM1716 = test system: WM1716
WM1745 = test system: WM1745
WM3526 = test system: WM3526
WM3619 = test system: WM3619
WM451Lu = test system: WM451Lu
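Note: cell number obtained by counting DAPI-stained nuclei in high-throughput microscope images with image analysis software, screen run in 1,536-well plates.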

| Compound | cell count (WM115) | cell count (WM1716) | cell count (WM1745) | cell count (WM3526) | cell count (WM3619) | cell count (WM451Lu) |
| --- | --- | --- | --- | --- | --- | --- |
| C#Cc1cccc(Nc2ncnc3cc(OCCOC)c(OCCOC)cc23)c1 [erlotinib] + COc1cc(Nc2ncc(F)c(Nc3ccc4c(n3)NC(=O)C(C)(C)O4)n2)cc(OC)c1OC [Tamatinib] (first compound 0.8 µM, partner dose 0.4 µM) | 89.6% | 103% | 63.5% | 87.7% | 91.9% | 92.4% |
| O=C(CCCCCCC(=O)Nc1ccccc1)NO [vorinostat] + O=S(=O)(c1ccccc1)N(CC(F)(F)F)c1ccc(C(O)(C(F)(F)F)C(F)(F)F)cc1 [T0901317] (first compound 0.08 µM, partner dose 1.4 µM) | 91.7% | 116% | 73.9% | 96.4% | 72.4% | 83% |
| Cn1c(Nc2ccc(C(F)(F)F)cc2)nc2cc(Oc3ccnc(-c4ncc(C(F)(F)F)[nH]4)c3)ccc21 + O=C(Nc1cccc(Cl)c1)Nc1ncc(CCNc2ncnc3ccsc23)s1 [SNS314] (first compound 0.08 µM, partner dose 0.0008 µM) | 40.8% | 77.9% | 69.3% | 43.8% | 76.5% | 77.6% |
| Clc1ccc(Nc2nnc(Cc3ccncc3)c3ccccc23)cc1 [vatalanib] + O=C(Nc1ccccc1)c1cc([N+](=O)[O-])ccc1Cl [GW9662] (first compound 2 µM, partner dose 2 µM) | 86.2% | 88.6% | 72.1% | 91.8% | 137% | 92.2% |
| O=C(CCCCCCC(=O)Nc1ccccc1)NO [vorinostat] + CC1(C)NC(=O)N(c2ccc([N+](=O)[O-])c(C(F)(F)F)c2)C1=O [nilutamide] (first compound 0.08 µM, partner dose 1 µM) | 106% | 108% | 82% | 93.3% | 124% | 89.2% |
| Nc1cccc2c1CN(C1CCC(=O)NC1=O)C2=O (configuration not stated) [lenalidomide] + O=C(O)C(=O)Nc1sc2c(c1C(=O)O)CCNC2 [TCS401] (first compound 1 µM, partner dose 1.66667 µM) | 97.7% | 99.8% | 93% | 106% | 99.6% | 110% |
| Cn1c(Nc2ccc(C(F)(F)F)cc2)nc2cc(Oc3ccnc(-c4ncc(C(F)(F)F)[nH]4)c3)ccc21 + O=c1cc(-c2cccc3c2Sc2ccccc2S3)oc(N2CCOCC2)c1 [KU55933] (first compound 0.08 µM, partner dose 1 µM) | 52.5% | 84.7% | 67% | 46.2% | 72.1% | 78% |
| C#Cc1cccc(Nc2ncnc3cc(OCCOC)c(OCCOC)cc23)c1 [erlotinib] + CC1(C)NC(=O)N(c2ccc([N+](=O)[O-])c(C(F)(F)F)c2)C1=O [nilutamide] (first compound 0.8 µM, partner dose 1 µM) | 86.8% | 93.5% | 86.9% | 95.2% | 97.5% | 73.8% |
| COCC[n+]1c2c(n(Cc3cnccn3)c1C)C(=O)c1ccccc1C2=O + O=C(CCCCCCC(=O)Nc1ccccc1)NO [vorinostat] (first compound 0.0004 µM, partner dose 0.08 µM) | 96.2% | 104% | 97.1% | 103% | 106% | 66.3% |
| Nc1cccc2c1CN(C1CCC(=O)NC1=O)C2=O (configuration not stated) [lenalidomide] + COc1ccc(COc2ccc(Cc3cnc(N)nc3N)cc2OC)cc1 [GW2580] (first compound 1 µM, partner dose 1 µM) | 103% | 102% | 91.4% | 78.8% | 110% | 92% |
| OCc1c[nH]c2ccccc12 [Indole-3-carbinol] + O=S(=O)(c1ccccc1)N(CC(F)(F)F)c1ccc(C(O)(C(F)(F)F)C(F)(F)F)cc1 [T0901317] (first compound 0.8 µM, partner dose 1.4 µM) | 85% | 105% | 94.7% | 95.5% | 85.8% | 94.5% |
| Clc1ccc(Nc2nnc(Cc3ccncc3)c3ccccc23)cc1 [vatalanib] + CC(C)CCN1c2nc(Nc3cc(F)c(O)c(F)c3)ncc2N(C)C(=O)C1C [BID1870] (first compound 2 µM, partner dose 0.2 µM) | 95.3% | 106% | 92.3% | 101% | 119% | 101% |
| OCc1c[nH]c2ccccc12 [Indole-3-carbinol] + COc1cc2c(Oc3ccc4[nH]c(C)cc4c3F)ncnc2cc1OCCCN1CCCC1 [cediranib] (first compound 0.8 µM, partner dose 0.4 µM) | 108% | 108% | 83.5% | 102% | 104% | 92% |
| OCc1c[nH]c2ccccc12 [Indole-3-carbinol] + O=C(O)c1ccc(-c2c[nH]c3ncc(-c4ccccc4)cc23)cc1C1CCCC1 [GSK650394] (first compound 0.8 µM, partner dose 0.16 µM) | 90.4% | 92% | 94.9% | 104% | 85.9% | 94.3% |
| Cn1c(Nc2ccc(C(F)(F)F)cc2)nc2cc(Oc3ccnc(-c4ncc(C(F)(F)F)[nH]4)c3)ccc21 + Cn1cncc1[C@@](N)(c1ccc(Cl)cc1)c1ccc2c(c1)c(-c1cccc(Cl)c1)cc(=O)n2C [tipifarnib] (first compound 0.08 µM, partner dose 0.01 µM) | 41.4% | 76.5% | 83.2% | 46% | 54.9% | 84.5% |
| Clc1ccc(Nc2nnc(Cc3ccncc3)c3ccccc23)cc1 [vatalanib] + C[C@@H]1CCN(C(=O)CC#N)C[C@@H]1N(C)c1ncnc2[nH]ccc12 [CP690550] (first compound 2 µM, partner dose 1 µM) | 97.3% | 101% | 88% | 104% | 83.1% | 80.3% |
| COCC[n+]1c2c(n(Cc3cnccn3)c1C)C(=O)c1ccccc1C2=O + CC(C)(C)c1cnc(CSc2cnc(NC(=O)C3CCNCC3)s2)o1 [SNS-032] (first compound 0.0004 µM, partner dose 0.01 µM) | 83.4% | 87.8% | 89.2% | 94.4% | 93.4% | 73.1% |
| C#Cc1cccc(Nc2ncnc3cc(OCCOC)c(OCCOC)cc23)c1 [erlotinib] + COc1cc2c(Oc3ccc4[nH]c(C)cc4c3F)ncnc2cc1OCCCN1CCCC1 [cediranib] (first compound 0.8 µM, partner dose 0.4 µM) | 102% | 105% | 85% | 93.5% | 103% | 105% |
| C#Cc1cccc(Nc2ncnc3cc(OCCOC)c(OCCOC)cc23)c1 [erlotinib] + Cc1cc([N+](=O)[O-])ccc1NS(=O)(=O)c1cc(Cl)ccc1Cl [FH535] (first compound 0.8 µM, partner dose 1 µM) | 77.2% | 92.5% | 90.4% | 91% | 110% | 99.1% |
| Cn1c(Nc2ccc(C(F)(F)F)cc2)nc2cc(Oc3ccnc(-c4ncc(C(F)(F)F)[nH]4)c3)ccc21 + Oc1nc(-c2ccc(C(F)(F)F)cc2)nc2c1CSCC2 [XAV939] (first compound 0.08 µM, partner dose 2 µM) | 46.8% | 43.7% | 52.7% | 46.6% | 71.4% | 102% |
| Cn1c(Nc2ccc(C(F)(F)F)cc2)nc2cc(Oc3ccnc(-c4ncc(C(F)(F)F)[nH]4)c3)ccc21 + Cc1cc(N2CCOCC2)cc2[nH]c(-c3c(NC[C@@H](O)c4cccc(Cl)c4)cc[nH]c3=O)nc12 [BMS536924] (first compound 0.08 µM, partner dose 0.2 µM) | 56.3% | 87.1% | 58.1% | 41.9% | 67.9% | 76.7% |
| OCc1c[nH]c2ccccc12 [Indole-3-carbinol] + CC(C)(C)c1cnc(CSc2cnc(NC(=O)C3CCNCC3)s2)o1 [SNS-032] (first compound 0.8 µM, partner dose 0.01 µM) | 96.8% | 102% | 106% | 110% | 115% | 81.5% |
| Clc1ccc(Nc2nnc(Cc3ccncc3)c3ccccc23)cc1 [vatalanib] + O=C1NC(=O)/C(=C/c2ccc(-c3ccc(F)cc3O)o2)S1 [AS252424] (first compound 2 µM, partner dose 1 µM) | 87.1% | 91% | 84.4% | 95.4% | 83.3% | 100% |
| O=C(CCCCCCC(=O)Nc1ccccc1)NO [vorinostat] + CC(C)(C)c1cnc(CSc2cnc(NC(=O)C3CCNCC3)s2)o1 [SNS-032] (first compound 0.08 µM, partner dose 0.01 µM) | 109% | 120% | 124% | 89.5% | 115% | 100% |
| OCc1c[nH]c2ccccc12 [Indole-3-carbinol] + O=c1cc(-c2cccc3c2Sc2ccccc2S3)oc(N2CCOCC2)c1 [KU55933] (first compound 0.8 µM, partner dose 1 µM) | 120% | 96.3% | 92.6% | 109% | 82.9% | 146% |
| Clc1ccc(Nc2nnc(Cc3ccncc3)c3ccccc23)cc1 [vatalanib] + COc1cc(N2CCC(N3CCN(C)CC3)CC2)ccc1Nc1ncc(Cl)c(Nc2ccccc2S(=O)(=O)C(C)C)n1 [NVP-TAE684] (first compound 2 µM, partner dose 0.08 µM) | 73.1% | 115% | 80.5% | 89.7% | 127% | 110% |
| Clc1ccc(Nc2nnc(Cc3ccncc3)c3ccccc23)cc1 [vatalanib] + OCCn1cc(-c2cnc3nnn(Cc4ccc5ncccc5c4)c3n2)cn1 [PF04217903] (first compound 2 µM, partner dose 1 µM) | 91.7% | 83.8% | 126% | 80.3% | 56.6% | 97.2% |
